Data: US8633183B2 (priority 2010, dated 2014)
Like-named read-outs stand apart in the source and are kept apart here.

Legend:
BT474 = assay: cells; details: Homo sapiens, BT-474, read-out: EC50 BT474
[1] = test system: PC3 (human prostate carcinoma cell line) cells; assay: cells
[2] = PC-3, 72 h, read-out: EC50 PC3 [nM]

Structure (SMILES)	EC50 (BT474) [µM]	further results
CCc1ncnc(-c2ccc(C(=O)N3CCN(C4CCCC4O)CC3)c(F)c2)c1C#Cc1ccc(N)nc1 (centres unmarked) [Example E-294]	0.0112	
CCc1ncnc(-c2cc(F)c(C(=O)N3CCC(CO)CC3)c(F)c2)c1C#Cc1ccc(NC)nc1 [Example E-220]	0.0339	
CCc1ncnc(-c2cc(F)c(C(=O)N3CCn4c(COC)nnc4C3)c(F)c2)c1C#Cc1ccc(N)nc1 [Example E-170]	0.0257	
CCNc1ccc(C#Cc2c(CC)ncnc2-c2ccc(C(=O)N3CCn4cnnc4C3)c(F)c2)cn1 [Example E-261]	0.0114	
CCc1ncnc(-c2cc(F)c(C(=O)N3CC[C@@H](N(C)C)C3)c(F)c2)c1C#Cc1ccc(NC)nc1 [Example E-209]	0.0807	
CCc1ncnc(-c2cc(Cl)c(C(=O)N3CCC(CO)CC3)c(Cl)c2)c1C#Cc1ccc(N)nc1 [Example E-205]	0.0201	
CCc1ncnc(-c2cc(Cl)c(C(=O)N3CCC(C(C)O)CC3)c(Cl)c2)c1C#Cc1ccc(N)nc1 (centres unmarked) [Example E-200]	0.00982	
CCc1ncnc(-c2ccc(C(=O)N3CCN(CC(C)O)CC3)c(F)c2)c1C#Cc1ccc(N)nc1 (centres unmarked) [Example E-296]	0.0185	
CCc1ncnc(-c2ccc(C(=O)N3CCn4cnnc4C3)c(F)c2)c1C#Cc1ccc(N)nc1 [Example E-248]	0.0561	
CCc1ncnc(-c2cc(F)c(C(=O)N3CCN(C4CCOCC4)CC3)c(F)c2)c1C#Cc1ccc(NC)nc1 [Example E-216]	0.0383	
CCc1ncnc(-c2ccc(C(=O)N3CCn4c(C)cnc4C3)c(Cl)c2)c1C#Cc1ccc(N)nc1 [Example E-254]	0.0166	
CCc1ncnc(-c2ccc(C(=O)N3CCn4cnnc4C3)c(Cl)c2)c1C#Cc1ccc(N)nc1 [Example E-255]	0.043	
CCc1ncnc(-c2cc(F)c(C(=O)N3CCn4ccnc4C3)c(F)c2)c1C#Cc1ccc(N)nc1 [Example E-147]	0.0138	
CCc1ncnc(-c2ccc(C(=O)N3CCN(C)CC3)c(F)c2)c1C#Cc1ccc(NC)nc1 [Example E-182]	0.0545	
CCc1ncnc(-c2cc(F)c(C(=O)N3CCC4(CC3)COC4)c(Cl)c2)c1C#Cc1ccc(N)nc1 [Example E-158]	0.0226	
CCc1ncnc(-c2ccc(C(=O)N3CCN(CCN)CC3)c(Cl)c2)c1C#Cc1ccc(N)nc1 [Example E-284]	0.0778	
C#CCN1CCN(C(=O)c2ccc(-c3ncnc(CC)c3C#Cc3ccc(N)nc3)cc2F)CC1 [Example E-165]	0.0186	
CCc1ncnc(-c2ccc(C(=O)N3CC4(CNC4)C3)c(F)c2)c1C#Cc1ccc(N)nc1 [Example E-269]	0.0597	
CCNc1ccc(C#Cc2c(CC)ncnc2-c2ccc(C(=O)N3CCn4ccnc4C3)c(F)c2)cn1 [Example E-260]	0.0229	
CCc1ncnc(-c2ccc(C(=O)N3CCC(F)(F)CC3)c(F)c2)c1C#Cc1ccc(N)nc1 [Example E-166]	0.0288	
CCc1ncnc(-c2ccc(C(=O)N3CCN4CCCC[C@H]4C3)c(Cl)c2)c1C#Cc1ccc(N)nc1 [Example E-143]	0.0224	
CCc1ncnc(-c2cc(F)c(C(=O)N3CCn4cnnc4C3)c(Cl)c2)c1C#Cc1ccc(N)nc1 [Example E-156]	0.0121	
CCNc1ccc(C#Cc2c(CC)ncnc2-c2ccc(C(=O)N3CCN(CCCS(C)(=O)=O)CC3)c(F)c2)cn1 [Example E-258]	0.0131	
CCc1ncnc(-c2ccc(C(=O)N3CC[C@H](N(C)C)C3)c(F)c2)c1C#Cc1ccc(NC)nc1 [Example E-181]	0.0938	

Structure (SMILES)	EC50 (BT474) [µM]	further results
CCc1ncnc(-c2ccc(C(=O)N3CCC(N4CCOCC4)CC3)c(F)c2)c1C#Cc1ccc(NC)nc1 [Example E-178]	0.0471	
CCc1ncnc(-c2cc(F)c(C(=O)N3CCC(C(C)O)CC3)c(F)c2)c1C#Cc1ccc(NC)nc1 (centres unmarked) [Example E-213]	0.0551	
CCc1ncnc(-c2ccc(C(=O)N3CCC4(CC3)CNC4)c(F)c2)c1C#Cc1ccc(N)nc1 [Example E-268]	0.438	
CCc1ncnc(-c2cc(F)c(C(=O)N3CCN(CCNS(C)(=O)=O)CC3)c(F)c2)c1C#Cc1ccc(N)nc1 [Example E-152]	0.0178	
CCc1ncnc(-c2cc(F)c(C(=O)N3CCN(C)CC3)c(F)c2)c1C#Cc1ccc(NC)nc1 [Example E-210]	0.0594	
CCc1ncnc(-c2ccc(C(=O)N3CCN(C4CCOCC4)CC3)c(Cl)c2)c1C#Cc1ccc(NC)nc1 [Example E-186]	0.0224	
CCc1ncnc(-c2ccc(C(=O)N3CC4(CN(C)C4)C3)c(F)c2)c1C#Cc1ccc(N)nc1 [Example E-287]	0.523	
CCc1ncnc(-c2cc(F)c(C(=O)N3CCn4c(C)cnc4C3)c(F)c2)c1C#Cc1ccc(N)nc1 [Example E-149]	0.0328	
CCc1ncnc(-c2ccc(C(=O)N3CCC4(CC3)CNC4)c(Cl)c2)c1C#Cc1ccc(N)nc1 [Example E-251]	0.588	
CCc1ncnc(-c2cc(F)c(C(=O)N3CCC(N4CCOCC4)CC3)c(Cl)c2)c1C#Cc1ccc(N)nc1 [Example E-236]	0.0187	
CCc1ncnc(-c2cc(F)c(C(=O)N3CCC(CO)CC3)c(Cl)c2)c1C#Cc1ccc(N)nc1 [Example E-242]	0.0184	
CCc1ncnc(-c2cc(F)c(C(=O)N3CCC(C(C)(C)O)CC3)c(Cl)c2)c1C#Cc1ccc(N)nc1 [Example E-237]	0.0206	
CCc1ncnc(-c2cc(F)c(C(=O)N3CCN(CCC#N)CC3)c(F)c2)c1C#Cc1ccc(NC)nc1 [Example E-221]	0.0337	
CCc1ncnc(-c2ccc(C(=O)N3CCN(C4COC4)CC3)c(F)c2)c1C#Cc1ccc(N)nc1C [Example E-280]	0.0367	
CCc1ncnc(-c2ccc(C(=O)N3CCN(C(C)C)CC3)c(C(F)(F)F)c2)c1C#Cc1ccc(N)nc1 [Example E-230]	0.0453	
CCc1ncnc(-c2cc(F)c(C(=O)N3CCN(C)CC3)c(Cl)c2)c1C#Cc1ccc(N)nc1 [Example E-233]	0.023	
CCc1ncnc(-c2cc(F)c(C(=O)N3CC4(CN(C)C4)C3)c(Cl)c2)c1C#Cc1ccc(N)nc1 [Example E-289]	0.0714	
CCc1ncnc(-c2cc(F)c(C(=O)N3CCN(C4COC4)CC3)c(Cl)c2)c1C#Cc1ccc(N)nc1 [Example E-282]	0.00861	
CCc1ncnc(-c2ccc(C(=O)N3CCN(Cc4cc(C)no4)CC3)c(F)c2)c1C#Cc1ccc(N)nc1 [Example E-290]	0.0149	
CCc1ncnc(-c2cc(F)c(C(=O)N3CCC(F)(F)CC3)c(F)c2)c1C#Cc1ccc(N)nc1 [Example E-173]	0.0397	
CCc1ncnc(-c2ccc(C(=O)N3CCn4ccnc4C3)c(F)c2)c1C#Cc1ccc(N)nc1 [Example E-249]	0.0228	
CCc1ncnc(-c2cc(F)c(C(=O)N3CCN(C4COC4)CC3)c(F)c2)c1C#Cc1ccc(N)nc1 [Example E-275]	0.0155	
CCc1ncnc(-c2ccc(C(=O)N3CCN(CC)CC3)c(Cl)c2)c1C#Cc1ccc(NC)nc1 [Example E-189]	0.0448	
CCc1ncnc(-c2cc(F)c(C(=O)NCCN3CCNCC3)c(F)c2)c1C#Cc1ccc(N)nc1 [Example E-174]	0.142	

Structure (SMILES)	EC50 (BT474) [µM]	further results
CCc1ncnc(-c2ccc(C(=O)N3CCC(N4CCOCC4)CC3)c(Cl)c2)c1C#Cc1ccc(NC)nc1 [Example E-185]	0.0259	
CCc1ncnc(-c2ccc(C(=O)N3CCn4c(C)cnc4C3)c(F)c2)c1C#Cc1ccc(N)nc1 [Example E-247]	0.0196	
CCc1ncnc(-c2ccc(C(=O)N3CCc4ncccc4C3)c(F)c2)c1C#Cc1ccc(N)nc1 [Example E-295]	0.0151	
CCc1ncnc(-c2ccc(C(=O)N3CCN4CCCC[C@@H]4C3)c(F)c2)c1C#Cc1ccc(N)nc1 [Example E-145]	0.0483	
CCc1ncnc(-c2cc(F)c(C(=O)N3CCN(CC(F)F)CC3)c(F)c2)c1C#Cc1ccc(NC)nc1 [Example E-217]	0.048	
CCc1ncnc(-c2cc(F)c(C(=O)N3CCC4(CC3)CNC4)c(Cl)c2)c1C#Cc1ccc(N)nc1 [Example E-162]	0.208	
CCCCN1CCN(C(=O)c2ccc(-c3ncnc(C)c3C#Cc3ccc(N)nc3)cc2)CC1 [Example D-190]		EC50 ([1]; read-out: EC50 PC3): 62 nM
CCc1ncnc(-c2ccc(C(=O)N3CCN(c4ccccc4)CC3)c(Cl)c2)c1C#Cc1ccc(N)nc1 [Example D-39]		EC50 ([1]; read-out: EC50 PC3): 67 nM
CCc1ncnc(-c2ccc(F)c(C(=O)N(C)C)c2)c1C#Cc1ccc(N)nc1 [Example C-15]		EC50 [1, 2]: 142 nM
CCc1ncnc(-c2ccc(C(=O)NCCN3CCCC3=O)c(F)c2)c1C#Cc1ccc(N)nc1 [Example D-211]		EC50 ([1]; read-out: EC50 PC3): 141 nM
Cc1ncnc(-c2ccc(Cl)c(C(=O)N3CCOCC3)c2)c1C#Cc1ccc(N)nc1 [Example C-40]		EC50 [1, 2]: 348 nM
CCc1ncnc(-c2ccc(C(=O)N3CCCCO3)c(F)c2)c1C#Cc1ccc(N)nc1 [Example D-219]		EC50 ([1]; read-out: EC50 PC3): 58 nM
CCc1ncnc(-c2ccc(C(F)(F)F)nc2)c1C#Cc1ccc(N)nc1 [Example C-28]		EC50 [1, 2]: 139 nM
CCc1ncnc(-c2ccc(C(=O)N3CCN(CC(F)F)CC3)c(Cl)c2)c1C#Cc1ccc(N)nc1 [Example D-41]		EC50 ([1]; read-out: EC50 PC3): 28 nM
CCc1ncnc(-c2ccc(C(=O)N3CCN(S(=O)(=O)CC)CC3)c(F)c2)c1C#Cc1ccc(N)nc1 [Example D-89]		EC50 ([1]; read-out: EC50 PC3): 42 nM
CCc1ncnc(-c2ccc(C(=O)N3CCN(Cc4ccccc4)CC3)c(Cl)c2)c1C#Cc1ccc(N)nc1 [Example D-160]		EC50 ([1]; read-out: EC50 PC3): 133 nM
CCc1ncnc(-c2ccc(C(=O)N3CCC(N4CCN(C5CCN(C)CC5)CC4)CC3)c(F)c2)c1C#Cc1ccc(N)nc1 [Example D-67]		EC50 ([1]; read-out: EC50 PC3): 105 nM
CCc1ncnc(-c2ccc(C(=O)N3CCC(N(C)C)C3)c(F)c2)c1C#Cc1ccc(N)nc1 [Example D-215]		EC50 ([1]; read-out: EC50 PC3): 64 nM
CCc1ncnc(-c2ccc(C(=O)NC3CCCN(C)C3)c(F)c2)c1C#Cc1ccc(N)nc1 [Example D-197]		EC50 ([1]; read-out: EC50 PC3): 122 nM
CCc1ncnc(-c2ccc(C(=O)NCCN3CCOCC3)c(F)c2)c1C#Cc1ccc(N)nc1 [Example D-217]		EC50 ([1]; read-out: EC50 PC3): 97 nM
CCc1ncnc(-c2ccc(C(=O)N3CCN(CC(=O)N(C)C)CC3)c(F)c2)c1C#Cc1ccc(N)nc1C [Example D-23]		EC50 ([1]; read-out: EC50 PC3): 41 nM
CCc1ncnc(-c2ccc(C(=O)N(C)CCCOC)c(Cl)c2)c1C#Cc1ccc(N)nc1 [Example D-30]		EC50 ([1]; read-out: EC50 PC3): 71 nM
CCc1ncnc(-c2ccc(C(=O)N3CCC(N4CCOCC4)C3)c(F)c2)c1C#Cc1ccc(N)nc1 [Example D-234]		EC50 ([1]; read-out: EC50 PC3): 73 nM
